Target: Aj_EasH (Aspergillus japonicus, UniProt A0A1L1QK38)
Conditions: co-crystallised with 1 mM aKG, 0.01 M ZnCl2, 0.1 M HEPES pH 7.0, 20% PEG 6000; aKG coordinated to active-site iron (H131, E133, H209)

Compound: O=C(O)CCC(=O)C(=O)O [aKG]
- X-ray crystallography (2.2 Å): Inspection of the electron density map of Aj_EasH showed clear density for aKG and iron

From article PMC5317212, “Structural characterization of EasH (Aspergillus japonicus) – an oxidase involved in cycloclavine biosynthesis” (Chemical Communications (Cambridge, England), 2016)
